This is one part of the list.

The results in this text go back to paper PMC12040169 (PLOS Biology, 2025).

The subject of this assay is T1, C. trachomatis L2/434/Bu expressing GFP (CTL2-GFP).
T1 construct: L2/434/Bu GFP intracellular growth in HeLa cells
Further details: species or system HeLa; C. trachomatis total inclusion area by high-content imaging, normalised to DMSO. The conditions noted are these: total inclusion area; 28.5 h, 10 µM; inhibitor. Summed up: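 Imaging read-out: GFP inclusions and Hoechst nuclei captured by high-content imaging after fixation. Inclusion area/number = chlamydial growth; nuclei count = host cell viability. MIC calculated per earlier method.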
As to `Cc1cc(C)c(NC(=O)CSCC(=O)Nc2ccc3ccccc3c2)c(C)c1` [CBK264856], the “% of control remaining” value is given as 99.9368.

For `Cc1nc(NCCCn2ccnc2)c2ccccc2n1` [CBK051987], the “% of control remaining” value is reported as 109.467. Then `CCOC(=O)c1cc(C(N)=S)c(C)nc1C(F)(F)F` [CBK028734], with 61.2746.

In the case of `Nc1nnc(CSCc2ccc(Cl)cc2Cl)s1` [CBK263471], the “% of control remaining” value was 92.7838.

With `Cc1ccn2c(C(=O)N(C)CCc3noc(C(C)C)n3)nnc2n1` [CBK306670], the “% of control remaining” value is 63.2386. The value for `O=C(Nc1ccc(N2CCOCC2)cc1)c1ccc(-n2cnnc2)cc1Cl` [CBK269889] was 74.1941; that for `O=C(Nc1cccnc1N1CCNCC1)c1ccc(-c2cccc(C(F)(F)F)c2)o1` [CBK034119T] was 105.322; that for `CC(=O)N1c2ccc(-c3cn4ccc(C)cc4n3)cc2CC1C` (centres unmarked) [CBK285191] was 90.9566.

For the compound `Cc1nc(C2CCCN(C(=O)CCc3ccno3)C2)c2sccn12` (centres unmarked) [CBK285237], the “% of control remaining” value was 104.174.

As for `Cc1nc(-c2ccccc2)sc1CNC(=O)/C=C/c1c[nH]cn1` [CBK092368], the “% of control remaining” value worked out at 117.343. The value for `Cc1ccccc1Cc1cccc(C2CCN(C(=O)c3ccc(F)cc3)CC2)n1` [CBK286140] was 95.0447. As to `COc1ccc(CSc2nnc(-c3ccncc3)n2C)cc1[N+](=O)[O-]` [CBK269638], the “% of control remaining” value is 72.8415. The value for `Cc1ccc(-c2nccnc2OCCn2cccc2)cc1C` [CBK106864] was 87.2079; that for `CCn1c(C(CC(C)C)NC(=O)c2ccco2)nc2cccnc21` (centres unmarked) [CBK283523] was 98.7186. The value for `CC(C)c1nsc(NS(=O)(=O)c2cc(OCC(F)(F)F)ccc2OCC(F)(F)F)n1` [CBK051262] was 28.0268; that for `O=C(CNC(=O)c1ccccc1Cl)Nc1ccc(Br)cc1C(=O)c1ccccc1` [CBK087691] was 0.

As to `COc1ccc(Cc2nc(-c3ccccc3)c3ccccc3n2)cc1F` [CBK291176], the “% of control remaining” value is given as 90.8546. The value for `CCN(CC)CCN(Cc1ccc2c(c1)OCO2)C(=O)Nc1cccc(NC(C)=O)c1` [CBK159042] was 81.6856.

With `CC1CN(C2(n3nnc4ccccc43)CCC(C(C)(C)C)CC2)CC(C)O1` (centres unmarked) [CBK019373], the “% of control remaining” value is 90.7098. For the compound `CCSc1cc(Nc2nc(Cl)cc(SCC)n2)nc(N)n1` [CBK005164], the “% of control remaining” value is on record as 91.7798. The value for `COc1ccc(Nc2nc(Cl)nc(NCCN3CCOCC3)n2)cc1` [CBK027610] was 56.6816. Then `FC(F)(F)c1ccnc(OCc2ccc(-c3ccccc3)cc2)c1` [CBK115826], with 93.8204. Turning to `O=C1C2CCCN2S(=O)(=O)c2ccccc2N1Cc1ccccc1` (centres unmarked) [CBK284018], the “% of control remaining” value turned out to be 92.3701. The value for `Nc1cc(N)nc(SCC(=O)Nc2nonc2N)n1` [CBK267522] was 90.6565; that for `O=C(O)c1sccc1NS(=O)(=O)Cc1ccccc1` [CBK004561] was 114.447.

Regarding `O=C(c1cc2c(s1)CCC2)N1CCc2c(nc[nH]c2=O)C1` [CBK283703], the “% of control remaining” value was 69.8137.

Regarding `CC(=O)N1CC[C@H]2NC(=O)CNC(=O)C3(CCCC[C@H]2C1)CCN(C(=O)c1ccc(C)nc1)CC3` [CBK292172], the “% of control remaining” value turned out to be 114.882. Then `COC1C(O)C(CO)OC1n1ccc(NC(=O)c2ccccc2)nc1=O` (centres unmarked) [CBK201212], with 82.5187. The value for `COc1ccccc1NS(=O)(=O)c1cc(S(=O)(=O)Nc2ccccc2OC)c(C)cc1C` [CBK261493] was 112.03.

Regarding `Cc1ccc(CN(CCCN(C)C)Cc2nc(C)n3ccccc23)o1` [CBK282482], the “% of control remaining” value was determined as 75.9663.

On to `CN(C)C(CNS(=O)(=O)c1ccc2[nH]c(=O)[nH]c(=O)c2c1)c1ccccc1Cl` (centres unmarked) [CBK286385], for which the “% of control remaining” value is 123.448. Then `N#Cc1ccc(C(=O)Nc2nnc(-c3ccccn3)o2)cc1` [CBK287428], with 129.373. The value for `O=C(NCCCN1CCN(Cc2ccccc2)CC1)c1cn2cc(C(F)(F)F)cc(Cl)c2n1` [CBK074654] was 86.6274. The value for `COc1ccccc1NC(=O)C1=C(C)NC(SCC(=O)Nc2ccc(C(=O)O)cc2)=C(C#N)C1c1cccs1` (centres unmarked) [CBK296139] was 74.2167. As for `CC(C)Nc1cncc(OCCN2CCNCC2)n1` [CBK115601], the “% of control remaining” value was determined as 100.072. For `CN(Cc1nccs1)C(=O)NC1CCN(Cc2cccc(O)c2)CC1` [CBK307657], the “% of control remaining” value was found to be 64.9943. The value for `CCN1C(=O)C(F)(CC)C(=O)c2ccccc21` (centres unmarked) [CBK098854] was 123.775.

Regarding `CCc1nc(CC(=O)NC(C)C(O)c2ccc(F)cc2)cs1` (centres unmarked) [CBK304003], the “% of control remaining” value was 87.1998. The value for `O=C(Nc1ccc(Cl)cc1C(=O)O)c1ccccc1Cl` [CBK000171] was 106.484; that for `CCCNC(=O)Cn1nc(CC)n2c(cc3sccc32)c1=O` [CBK284030] was 86.3315; that for `Cn1c(SCC(=O)N2CCN(Cc3ccccc3)CC2)nnc1-c1cccc([N+](=O)[O-])c1` [CBK267154] was 118.25.

For `CCNC(=O)[C@H]1CN(Cc2ccccc2)C[C@@H]1C(=O)c1ccccc1` [CBK285265], the “% of control remaining” value is listed as 85.38. Then `CCn1c(C)cc2cc(NS(=O)(=O)c3cn(C)nc3C)ccc21` [CBK282789], with 77.6469; and `O=C(c1ccc(F)cc1)C1CCN(C(=O)c2cccnc2NCc2ccc3c(c2)OCO3)CC1` [CBK160114], with 76.871; and `COc1cc(C#N)ccc1Oc1ccc([N+](=O)[O-])cn1` [CBK002569], with 100.481.

On to `CC(C)(C)c1cc(C(=O)N2CCN(c3ncccn3)CC2)n(Cc2ccc(Cl)cc2Cl)n1` [CBK107294], for which the “% of control remaining” value is 99.1397. In the case of `Cc1cccc(OCCOc2ccc(Br)cc2/C=C2\SC(=N)NC2=O)c1` [CBK263958], the “% of control remaining” value is listed as 96.7712.

As to `O=C(COc1cccc2ccccc12)N/N=C/c1ccco1` [CBK086853], the “% of control remaining” value worked out at 86.9758. Then `CN(C)CCN(C)C(=O)c1ccc(-c2cccc(OC(F)(F)F)c2)nc1N(C)C` [CBK106081], with 115.497; and `c1csc(CSc2nnc3sc4ccccc4n23)c1` [CBK266291], with 103.843.

For `OC(CN1CCC(O)(c2ccccc2F)CC1)c1ccc(F)cc1` (centres unmarked) [CBK282492], the “% of control remaining” value stood at 111.641. In the case of `CN1CCC(C(=O)N2CCCc3ccccc32)CC1` [CBK200260], the “% of control remaining” value was determined as 80.4764. Then `Cc1ccc2cc(CN(CC(C)C)S(C)(=O)=O)c(O)nc2c1` [CBK269593], with 69.6525; and `CC(C)C1OC(NCCN2CCOCC2)=NC1=O` (centres unmarked) [CBK074097T], with 85.4882.

Take `N#Cc1cccc(-c2cnc(N)c(-c3ccc(O)cc3)n2)c1` [CBK115630]: the “% of control remaining” value is recorded as 95.1394. Then `CCn1cc(C2CN(S(=O)(=O)c3cc(C)c(OC)cc3C)CCO2)cn1` (centres unmarked) [CBK304225], with 49.7901. The value for `CCCn1c(=O)c(C(=O)NCCN(CC)CC)c(O)c2cc(Br)ccc21` [CBK291118] was 80.4149; that for `N=C1OC2CSCC2N1C(=O)Cc1ccccc1Cl` (centres unmarked) [CBK284516] was 95.9318; that for `Cn1ncc(N2CCC(CNC(=O)COc3ccc(Cl)cc3)C2)cc1=O` (centres unmarked) [CBK306517] was 108.816. `CC(=O)Nc1cccc(CN(CCCO)C2CCc3ccccc32)c1` (centres unmarked) [CBK304011]: the “% of control remaining” value amounted to 93.4808.

Regarding `CCn1cnc2cc(NC(=O)CC(C)n3nc(C)cc3C)ccc21` (centres unmarked) [CBK281401], the “% of control remaining” value stood at 106.027.

Take `CN(C)Cc1cc(C[C@@H]2C[C@H](NS(=O)(=O)c3ccccc3)C2(C)C)no1` [CBK289307]: the “% of control remaining” value is reported as 111.495.

In the case of `CC1CN(c2cc(CNc3nc4ccccn4c3C#N)ccn2)CCO1` (centres unmarked) [CBK306423], the “% of control remaining” value is given as 46.1137. For the compound `c1ccc([C@@H]2CN(CC3CCOC3)C[C@H]2c2cc[nH]n2)cc1` (some centres unmarked) [CBK285163], the “% of control remaining” value is listed as 79.8049. The value for `O=C(Cn1cccnc1=O)NC(c1ccc2c(c1)CCO2)C1CC(O)C1` (centres unmarked) [CBK306595] was 82.956; that for `O=C(O)C1CC(O)CN1S(=O)(=O)c1ccc(Cl)cc1` (centres unmarked) [CBK266106] was 81.2409; that for `CCN(CC)CCOC(=O)C1(c2ccccc2)CCOc2ccccc21` (centres unmarked) [CBK009850C] was 102.633. The value for `CC(=O)OCC(=O)Nc1ccc2cc(Br)cnc2n1` [CBK063311] was 87.5038; that for `COc1ccc(-c2nc(-c3cccs3)cnc2N)cc1OC` [CBK063981] was 136.396. In the case of `CCc1nc2ccc(C(=O)NC3CCN(C)CC3)cn2c1N(C)C=O` [CBK146594], the “% of control remaining” value came out at 76.5446. Then `CCOC(=O)c1c(NC(=O)CSc2nnc3ccccn23)sc2c1CCCCC2` [CBK265685], with 116.559; and `CC(NCC(=O)N1c2ccccc2NC(=O)CC1C)c1ccc(-c2ccccc2)cc1` (centres unmarked) [CBK295155], with 73.7145.

As for `OCCN1CCN(c2ncnc3scc(-c4ccccc4)c23)CC1` [CBK287582], the “% of control remaining” value is 115.398. Then `O=C(C[C@@H]1CCNC[C@@H]1Cc1cc(-c2ccccc2)on1)Nc1cccc(O)c1` [CBK289149], with 105.067; and `CC(=O)N(C)c1nc(-c2cccc(N(C)C)c2)ccc1C(=O)Nc1ccc(C(F)(F)F)cc1` [CBK076623], with 49.0744. The value for `COc1ccc2oc(C(=O)NCCN3CCOCC3)c(C)c2c1OC` [CBK269913C] was 95.5556. The value for `O=C(Nc1ncc(Cl)s1)C1CC(=O)N(C2CC2)C1` (centres unmarked) [CBK175551] was 27.0566; that for `N#Cc1ccccc1/C=N/NC(=O)COc1ccc(-c2cc(-c3ccccc3)c3cc(Cl)ccc3n2)cc1` [CBK263337] was 114.697; that for `COC(=O)c1sccc1NS(=O)(=O)c1ccc2ccccc2c1` [CBK004500] was 83.2439. In the case of `CCc1nn(CC(=O)NC(C)C)c(=O)c2cc3ccsc3n12` [CBK284131], the “% of control remaining” value came out at 89.2827.
